# The full ranking holds about 33,000 sequences; the median of “E-score (-0.5 to 0.5)” is about -0.035, and the highest 2% start at about 0.35. The list shows a part of the results.
# Biological target: T1, Pdr3 (UniProt P33200)
# T1 sequence: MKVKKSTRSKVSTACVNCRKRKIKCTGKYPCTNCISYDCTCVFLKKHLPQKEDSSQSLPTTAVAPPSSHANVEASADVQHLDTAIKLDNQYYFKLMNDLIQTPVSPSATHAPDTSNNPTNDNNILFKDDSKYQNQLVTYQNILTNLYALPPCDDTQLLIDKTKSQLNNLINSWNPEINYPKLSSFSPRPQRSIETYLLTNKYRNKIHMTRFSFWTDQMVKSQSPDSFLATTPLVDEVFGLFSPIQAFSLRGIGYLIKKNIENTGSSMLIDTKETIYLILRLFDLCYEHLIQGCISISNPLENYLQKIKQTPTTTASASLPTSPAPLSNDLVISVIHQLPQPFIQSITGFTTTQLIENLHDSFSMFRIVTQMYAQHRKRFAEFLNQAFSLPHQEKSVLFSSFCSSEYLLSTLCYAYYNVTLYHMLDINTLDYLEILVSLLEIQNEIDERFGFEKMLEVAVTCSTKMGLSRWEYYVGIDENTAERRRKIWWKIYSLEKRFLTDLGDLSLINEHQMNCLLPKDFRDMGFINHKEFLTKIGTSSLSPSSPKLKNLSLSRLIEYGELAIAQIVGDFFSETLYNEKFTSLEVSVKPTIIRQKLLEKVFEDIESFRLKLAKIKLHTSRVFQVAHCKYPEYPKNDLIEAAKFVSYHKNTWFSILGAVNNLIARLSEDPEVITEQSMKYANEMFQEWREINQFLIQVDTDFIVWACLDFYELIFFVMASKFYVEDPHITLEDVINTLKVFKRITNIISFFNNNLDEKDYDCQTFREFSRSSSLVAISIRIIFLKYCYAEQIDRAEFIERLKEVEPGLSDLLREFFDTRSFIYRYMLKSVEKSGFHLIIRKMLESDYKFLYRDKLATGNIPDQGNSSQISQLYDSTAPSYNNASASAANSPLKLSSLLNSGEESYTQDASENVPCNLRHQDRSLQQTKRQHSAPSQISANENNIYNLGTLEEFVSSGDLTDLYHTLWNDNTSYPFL
# Test: PBM E-score (8-mer binding enrichment) (E-score (-0.5 to 0.5)); higher = stronger / more preferred TF binding; most listed sequences are background and not binding sites
# Settings: protein concentration: 200 nM; construct: GST-full length
# Procedure: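 Universal 'all 10-mer' protein binding microarrays (Agilent AMADID 015681) probed with GST-tagged S. cerevisiae TFs (full-length or DBD) made by in vitro transcription/translation (PURExpress), about 100-200 nM. Bound TF was detected with fluorescent anti-GST. Each ungapped 8-mer (which stands for itself and its reverse complement) is scored by the PBM enrichment score (E-score), a modified Wilcoxon-Mann-Whitney statistic from -0.5 to +0.5, computed with the Universal PBM Analysis Suite. Scale: above 0.35 generally sequence-specific binding.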
row,Sequence,PBM E-score
1,CGGCTCAA,0.0984
2,TCACCTCA,-0.144
3,TATTGTAA,-0.198
4,ATTGGCTG,-0.202
5,GGATTCAC,0.0237
6,AGGCCTCC,-0.163
7,GCTAACCA,-0.145
8,AGCCCTAG,-0.182
9,CTGACCAC,-0.0502
10,GCCAAGAC,-0.256
11,ATTCGCCA,0.064
12,CTTCGAGC,0.111
13,AAAATCTC,-0.0559
14,ATCTATAA,-0.0823
15,AAAGCATA,-0.147
16,GGGCTCCA,-0.123
17,CATATTCC,0.211
18,CAGGTACA,-0.112
19,AACTACAC,-0.155
20,CCGCCAAA,0.237
21,CCACCCAG,-0.09
22,TACACAAA,0.0314
23,GCTCTTAA,-0.108
24,GGGGTAGA,-0.0242
25,CCTGTGAA,-0.0903

row,Sequence,PBM E-score
1,GTATGGAA,-0.0359
2,GATAGTCA,-0.141
3,AATAGCTA,-0.034
4,GCGGATAA,0.342
5,AACTCAGT,-0.149
6,GACCAAAA,0.0995
7,CCCGGGGC,0.338
8,ATGTACAC,-0.247
9,GAACCATC,0.11
10,CACGCGGA,0.38
11,CCCTGACG,0.118
12,ACGGGAAT,0.251
13,CTATTGTC,-0.0428
14,ACCAAGTA,-0.0735
15,TCCTCTCA,-0.221
16,GATGGAAA,0.0146
17,GTTGTGAA,-0.142
18,CCGGATAA,0.396
19,GGGTTCAA,-0.0922
20,ATTTTTCG,0.111
21,CTCTCCCA,-0.147
22,GTTGGAGA,-0.0278
23,ACGGCAGG,0.0395
24,ATTTACTA,0.0272
25,GTATATGA,0.0321

row,Sequence,PBM E-score
1,GGCCTACA,-0.0679
2,CCGTACAG,0.0992
3,AAAATCGC,0.0302
4,CGGGGAAC,0.258
5,CCAAACTC,0.0235
6,AACGCTCG,0.0169
7,GATGGGGC,0.0419
8,CGACCTAC,-0.14
9,ACCCGCGC,0.353
10,ATACCGTA,0.0516
11,GTCGGGTA,0.19
12,GGGTCTAA,-0.0709
13,CTTAGATA,-0.0803
14,ATGGCCAT,0.163
15,AATCGCCT,0.0918
16,CTGTTCGC,0.05
17,GTTACTAA,-0.243
18,GCCCACCC,0.119
19,CTGGGGTA,-0.143
20,CACTTTCC,0.212
21,ACCCGAAG,0.147
22,GCGTTAGC,-0.213
23,AACAATCA,-0.0618
24,ATGAATTC,0.0645
25,AAACCCAA,0.0475

row,Sequence,PBM E-score
1,CAATCACA,-0.237
2,ATCATAGG,-0.00823
3,TGTGTAAA,0.0265
4,ACCGTAGT,0.0824
5,GACGTTAA,-0.0348
6,TCAACTAA,-0.118
7,ACGATAGG,-0.1
8,AGAGTAAC,0.0157
9,GTCTGGCA,-5e-05
10,AACTTAGG,-0.188
11,GAGACGAC,0.127
12,CAAATTAC,-0.0508
13,CTTAGGAA,-0.258
14,TGTTCAAA,-0.0744
15,AGGTGTCA,0.0471
16,GGGTGCGA,-0.0118
17,CCATACAA,-0.123
18,AAAAATCA,-0.0267
19,GTTCAGGA,-0.0158
20,CCGAAAAA,0.3
21,GATGGTAA,-0.127
22,GACAGAGA,-0.153
23,CGACGTCG,-0.103
24,GATTATCA,0.0698
25,AGTTGGCG,0.125

row,Sequence,PBM E-score
1,CGAAGTCG,-0.0357
2,ACCATAGG,-0.229
3,GAGTTAGA,-0.12
4,AATAAAAA,0.063
5,CGCGTTTA,0.037
6,AAGGAGAC,-0.222
7,AGGTAGCA,-0.188
8,GGTAATAA,0.165
9,AGAGTCAA,-0.152
10,AGCAATAT,-0.0613
11,CTAATTAC,-0.0343
12,CGAAGCCG,0.266
13,ACATGCTA,-0.0976
14,CATGGGAA,0.12
15,ATGTACGG,0.0336
16,CTTGTGGA,-0.163
17,AGTCGTAT,-0.268
18,CGACCCTA,-0.0789
19,CTTAAATA,-0.126
20,GGTGACCA,-0.11
21,GGCGGACA,0.185
22,ACTCCCCG,0.306
23,AATTGCCG,0.122
24,GCCAGTTA,-0.00612
25,ACCCATTA,0.0069

row,Sequence,PBM E-score
1,GCGTATCC,0.00149
2,CAAGTGTG,-0.113
3,AAGGGGCT,-0.104
4,GTGCTTGA,-0.16
5,CGAACACG,0.0492
6,CCCACGCG,0.0313
7,GGCTTGGA,-0.266
8,CCGATGCG,0.203
9,CGGTACGA,0.0414
10,CTTTACCC,-0.0933
11,CATATTCA,-0.0969
12,AGGGTGAA,-0.176
13,CGGCATGA,0.247
14,CACTGATC,-0.176
15,CGCCCTTA,-0.0281
16,CCTGAAAC,0.0656
17,CTCTAGGC,-0.148
18,CCGGACGG,0.396
19,GGAGACCA,0.0972
20,CTGCGTGC,-0.0812
21,CCCTGCTC,-0.0867
22,AAACAACT,0.0279
23,CGGTCAGC,0.0706
24,AAATTAGC,-0.0765
25,CACCTCCC,-0.0984

row,Sequence,PBM E-score
1,GCCGAGCA,0.0374
2,GTATATCA,-0.0427
3,AAAGAGGA,-0.131
4,AGAAGGGA,-0.323
5,GGAGGTTA,-0.0104
6,ACGGCCGC,0.313
7,GGAAGGGA,0.201
8,CGAGTACC,0.0734
9,AGGCGCAC,0.147
10,CACTTCAA,0.203
11,AATGATAC,0.0214
12,CATTTGCC,-0.13
13,ATACTGTA,0.0259
14,GACGTCTA,-0.129
15,ACAACCGG,0.234
16,TTCTGAAA,-0.00916
17,CAAAAGAC,-0.205
18,ACTATATG,-0.113
19,TTAGTGAA,-0.063
20,AGAATCGG,0.0495
21,CAAGGCCC,0.0552
22,GAGGATGC,0.00976
